The other results are listed elsewhere or left out. At the low end of the ranking the order means little. Measured with an extract: partners may take part in the binding.

The assay concerns the target T1, HNF4alpha2 (COS-7 nuclear extract) (UniProt P41235).
T1 sequence: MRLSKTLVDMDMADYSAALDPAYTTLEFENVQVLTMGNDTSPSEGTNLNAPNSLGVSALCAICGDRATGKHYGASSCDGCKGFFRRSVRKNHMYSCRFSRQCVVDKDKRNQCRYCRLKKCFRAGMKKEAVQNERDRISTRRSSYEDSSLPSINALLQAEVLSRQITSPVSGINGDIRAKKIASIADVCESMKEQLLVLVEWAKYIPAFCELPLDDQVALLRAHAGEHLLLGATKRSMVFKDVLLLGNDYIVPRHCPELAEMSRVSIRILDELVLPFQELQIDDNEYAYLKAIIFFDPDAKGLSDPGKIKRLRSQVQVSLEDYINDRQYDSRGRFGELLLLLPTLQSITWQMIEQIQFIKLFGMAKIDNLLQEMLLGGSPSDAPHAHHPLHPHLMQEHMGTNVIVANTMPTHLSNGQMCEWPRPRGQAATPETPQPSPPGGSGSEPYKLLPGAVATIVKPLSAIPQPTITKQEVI
Briefly: protein-binding microarray. The conditions noted are these: COS-7 nuclear extract on double-stranded Agilent 4x180k PBM; binding buffer, salt, pH and temperature not given; high values mean tight binding; double strand, one strand shown; sequences stand for … in …GCCTAGGGAGATTAGAGTATCGGTCGA
As to ACCAGAACTTCTTATCACTTGGTGGACATG, the binding signal (log2 normalized intensity) was 1.45.
Turning to TCAAAGGTCAAAGGGCATAGCCTCAGGGAC, the binding signal (log2 normalized intensity) was determined as 5.07.
On to GGGCAGCAAACCTACCTGAACTTTGCCCCA, for which the binding signal (log2 normalized intensity) came out at 7.99.
For CAGGAATGTTCAAGAAGTTCCAAAGGCCAG, the binding signal (log2 normalized intensity) was 1.58.
For CTGCTTCCAAAGAGCTCAACCTGTGAAAAT, the binding signal (log2 normalized intensity) was determined as 0.355.
In the case of ATCAAATCCTAACATGCTGCAGGCATTTCT, the binding signal (log2 normalized intensity) was -0.741.
Take ACAAGGAGATGGCCCCTCTCTTTTATTATA: the binding signal (log2 normalized intensity) was 0.132.
As for TAAGGTTTCTCAGCCCCATCCCCCAATACA, the figure is 5.63; as for CAACTTTCTCCTCCAGGACCTTGCCCTTTA, 4.23; as for AGTGGCCTGAGGCAGCCAGTGAGTGCAGCA, -1.11.
For GTCTTACTGATGGGCAAAGTTTTCAAGAAT, the binding signal (log2 normalized intensity) stood at 0.966.
AGACAGAAGTAAAACAGGTAGAGAGCTGTC: the binding signal (log2 normalized intensity) is -1.17.
For the sequence CCATCTTGTGGCCATGCTTAGGACTGCAGG, the binding signal (log2 normalized intensity) came to 0.426.
As for TCTGCTGTACATATTTGCCAAGTGATAAGG, the binding signal (log2 normalized intensity) was 1.43.
On to CAGAGTTCACCCCATTTTGTCCCTCCCTGC, for which the binding signal (log2 normalized intensity) was 3.99.
For the sequence TGTGAGCCAATTCAGCAAACAAAGGCACTT, the binding signal (log2 normalized intensity) was -0.475.
On to AAGAAGCTCTGGCGCCATCTGGTTTCTTTA, for which the binding signal (log2 normalized intensity) was -1.26.
As for TACACAGCAGCTTTAGTCAGAGATTTCTTT, the binding signal (log2 normalized intensity) is -1.14.
Take TGCAATGAAAGTCCACTTGTCTGGCCTTCC: the binding signal (log2 normalized intensity) amounted to 1.47.
For CCTCTTTCCTGCAGGCCCATCTGGGACTTC, the binding signal (log2 normalized intensity) was determined as 1.33.
As for TTGGTTCAAGAGAAATGTTATCTCAGTAGA, the figure is -1.14; as for CATGCTATGCTCTCTCTCCACCTGGAGGGA, -1.03; as for ATTTTACTACTAACCGAAAGTCTGACCCTT, 4.54.
CAAGGGCATTTGCGTAGGCTGTCAGAGTGC: the binding signal (log2 normalized intensity) is -0.194.
The result for TCTAAGGCAAAACACCCCTTTCACTTCTTC reads 1.01.
As for ATTTTTCCCTTTGATATTTATCAAGATGAA, the figure is 0.736; as for GGATTCTGGCTAAACCAGCCTAACAGGATT, -1.14; as for CTGCTAAACCAACACCAGCAACCGCCTACC, -1.04.
As for CTTGTTTTGGGGGTTGGTATTACAAAGCAA, the binding signal (log2 normalized intensity) is 1.34.
Turning to CAGCTCTCTCCCTTATCTGAATTCCAGCAT, the binding signal (log2 normalized intensity) is -1.02.
With GAGTTAACTATTGAGACTTTGGGGTTTTAT, the binding signal (log2 normalized intensity) was 0.792.
As for GACCTGACACCCGCTGGCGCCATCCAAAGG, the figure is -1.21; as for GGTGACCGGACACAAAAGCTGCTGCCAAGC, -1.02; as for CTTATCTTTGACCTTACCAGCCCACTCTTA, 1.9.
Regarding GGGTCAGAACCTGCCCATGACCTTTGGACT, the binding signal (log2 normalized intensity) was determined as 11.1.
In the case of GCTTTAAAATGGGTACAGACAATAGGAAGA, the binding signal (log2 normalized intensity) was -0.121.
Regarding CTGGCATCTGGTCAGGGGTCAAGAAGCTCT, the binding signal (log2 normalized intensity) was found to be 2.21.
For ACATACTTGGAGACAGTCACTCCCACCCTT, the binding signal (log2 normalized intensity) came to 2.67.
For GGAGGCCGCGACAAGCGTCGCTGAGTGGAG, the binding signal (log2 normalized intensity) is -1.04.
As for ACACACGTTCCTGACAGACTGCCATTCCAG, the figure is -1.19; as for TTCTAGGTAGATAAGGGAGTTTCAGAGGAC, -1.14; as for GTCCAAGAAAAAGGAGCAGATGGCTAGTGA, -0.599.
For GGGGTCAGATAATTCTTTGCTGTGGTAGGC, the binding signal (log2 normalized intensity) amounted to 1.04.
As for GACTTTAATCTCCAAGTAACTGAAACTACA, the figure is -1.13; as for CCTAAGCCCTGCCACCCCCGTTAATTTCTA, 2.86.
Turning to AAAGATCAGTGTACTTAAAAATGCCTTTCA, the binding signal (log2 normalized intensity) was -1.1.
As to AGATAATGGGGGAGCCACTGCAGCTTTCTG, the binding signal (log2 normalized intensity) was -1.1.
Turning to AAAAAAAAAAAAGAACACAGTGTAGAAGGC, the binding signal (log2 normalized intensity) is -1.02.
As for GACCTCAATGTGCTCATCCATAAAATGGGG, the binding signal (log2 normalized intensity) worked out at 0.0579.
As to ATACACCTTGCCTGGCTACCTCTTAGCTAC, the binding signal (log2 normalized intensity) is -1.08.
For CTATCAGTTGAGATTTATTCCCAGGTTCCA, the binding signal (log2 normalized intensity) worked out at 0.371.
Take TAACCTTTGGCTGGTAGAGCAGGTTTCAGA: the binding signal (log2 normalized intensity) was 1.84.
GGGGACTTCACATGCCTTTGTAGTTACCCA: the binding signal (log2 normalized intensity) worked out at 0.0234.
On to ATATCATTAACCTATTATTTTATAGAAAAG, for which the binding signal (log2 normalized intensity) stood at 1.15.
On to CTGCGTTTCTCCTCTCTGGGCTTCCATTGT, for which the binding signal (log2 normalized intensity) came to 1.2.
With CCAGATGTCTGGCTAAGACCTTTAGTTAGC, the binding signal (log2 normalized intensity) was found to be 0.978.
As for CCCTGGACTCAGCTCCCATAGAGTCCACCA, the figure is 2.26; as for CTTCATGGAGAGAATTCCCATCCCACTAGG, -1.16; as for CCAGGTTGCATCAGCTGGGCTCGGCGCTCC, -1.06.
CACCCAGAACTTTGACCGTTTGATTATTTG: the binding signal (log2 normalized intensity) came to 2.56.
With TCTCTGTAACATTCCTAGATATCAGGAAGG, the binding signal (log2 normalized intensity) was -0.456.
CCTAAAAGCTTTCTTGGGCAAGAAAGGGGT: the binding signal (log2 normalized intensity) is -0.934.
The result for TCCAAAACATTGTAGAATTATCCAGATCAA reads -1.13; that for TCCCTCATATAATTTACATAACAGGTTTGT, 2.1; that for ATAAGATGAAGCTCTCAGAATAGCAAATCT, -1.16.
The result for CTGACCTTTACCCATTCCTTAGTGCATGGG reads 3.13.
As for TCTTTTCTAAGATATTTGCATAGGCATTGT, the binding signal (log2 normalized intensity) stood at 1.94.
Consider ATTGAGGCCAGCAAAGGGCAAGTAAATGTG, for which the binding signal (log2 normalized intensity) came out at 0.468.
For TGTTTGCAGATGGTTTCATCTGGTTTCTGT, the binding signal (log2 normalized intensity) was 1.9.
For GATCAGGGCCCCTTCCTGGGGGAGTTTCCT, the binding signal (log2 normalized intensity) is -1.26.
Turning to AGGAGTCCACTGTGTTCTTGTTTGCTAAGT, the binding signal (log2 normalized intensity) came out at 1.48.
For GGATGGCCATTGTTCATACTGCAGCTCTGC, the binding signal (log2 normalized intensity) is -1.21.

The values above are taken from PMC10726135.
